# Measurements published in the supplement of paper PMC8728848.
# The other results are listed elsewhere or left out.
# B1: CPA (Cicer arietinum) (protein)
# chain: MAFSYLNLVLVTLTTLFFLQTTKVKSQKSVSFHITNFTISRPSITLQGTAEFLPNVLLLNDIEHPVFVVGRALYSKPITLWNNKTGKVASFVTSFTFDVQDLKKTVPGHGLVFFLAPSGSEIPFSSDGGNLGVVDGKNAFNRFVGVEFDNFVNSWDPKYSHVGINVNSLISTKTVKWNRVSGELVKVSIVYDSVSTTLTVIVTYKNGQISILSQLVDLKAVLPDTVNIGFSASTTLVSPRQLHNIHSWSFTSTFET
# Columns and labels:
# Experiment in all cases: glycan array binding signal (z-score within array); higher = stronger binding
# Conditions in all cases: glycan notation: IUPAC condensed, linker removed
# [1] = target: Man(a1-3)[Man(a1-6)]Man(a1-6)[Man(a1-3)]Man(b1-4)GlcNAc(b1-4)GlcNAc
# In short: (§1)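 Arrays were curated from the Consortium for Functional Glycomics database, 3228 in total, and kept only where the protein sequence was available. Binding is expressed as a within-array Z-score. This score was averaged across arrays of the same protein sequence at different concentrations or buffers and across linkers, and negative values can be read as non-binding.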
# [2] = target: Man(a1-3)[Man(a1-6)]Man(b1-4)GlcNAc(b1-4)GlcNAc
# In short: as §1
# [3] = target: Man(a1-3)[Man(a1-6)]Man(b1-4)GlcNAc(b1-4)[Fuc(a1-6)]GlcNAc
# In short: as §1
# [4] = target: Man(a1-6)Man
# In short: as §1
# [5] = target: Man(b1-4)GlcNAc
# In short: as §1
# [6] = target: MurNAc(b1-4)GlcNAc
# In short: as §1
# [7] = target: Neu5Ac(a2-3)Gal
# In short: as §1
# [8] = target: Neu5Ac(a2-3)Gal(b1-3)GalNAc
# In short: as §1
# [9] = target: Neu5Ac(a2-3)Gal(b1-3)GalNAc(b1-3)Gal(a1-4)Gal(b1-4)Glc
# In short: as §1
# [10] = target: Neu5Ac(a2-3)Gal(b1-3)GalNAc(b1-4)[Neu5Ac(a2-3)]Gal(b1-4)Glc
# In short: as §1
# [11] = target: Neu5Ac(a2-3)Gal(b1-3)GalNAc(b1-4)[Neu5Ac(a2-8)Neu5Ac(a2-3)]Gal(b1-4)Glc
# In short: as §1
# [12] = target: Neu5Ac(a2-3)Gal(b1-3)GalNAc6S
# In short: as §1
# [13] = target: Neu5Ac(a2-3)Gal(b1-3)GlcNAc
# In short: as §1
# [14] = target: Neu5Ac(a2-3)Gal(b1-3)GlcNAc(b1-2)Man
# In short: as §1
# [15] = target: Neu5Ac(a2-3)Gal(b1-3)GlcNAc(b1-2)Man(a1-3)[GlcNAc(b1-4)][Neu5Ac(a2-3)Gal(b1-3)GlcNAc(b1-2)Man(a1-6)]Man(b1-4)GlcNAc(b1-4)GlcNAc
# In short: as §1
# [16] = target: Neu5Ac(a2-3)Gal(b1-3)GlcNAc(b1-2)Man(a1-3)[Neu5Ac(a2-3)Gal(b1-3)GlcNAc(b1-2)Man(a1-6)]Man(b1-4)GlcNAc(b1-4)GlcNAc
# In short: as §1
# [17] = target: Neu5Ac(a2-3)Gal(b1-3)GlcNAc(b1-3)Gal(b1-3)GlcNAc
# In short: as §1
# [18] = target: Neu5Ac(a2-3)Gal(b1-3)GlcNAc(b1-3)Gal(b1-4)GlcNAc
# In short: as §1
# [19] = target: Neu5Ac(a2-3)Gal(b1-3)GlcNAc(b1-3)GalNAc
# In short: as §1
# [20] = target: Neu5Ac(a2-3)Gal(b1-3)GlcNAc(b1-4)Gal(b1-4)Glc
# In short: as §1
# [21] = target: Neu5Ac(a2-3)Gal(b1-3)GlcNAc(b1-6)GalNAc
# In short: as §1
# [22] = target: Neu5Ac(a2-3)Gal(b1-3)GlcNAc6S
# In short: as §1
# [23] = target: Neu5Ac(a2-3)Gal(b1-3)[Fuc(a1-4)]GlcNAc
# In short: as §1
# [24] = target: Neu5Ac(a2-3)Gal(b1-3)[Fuc(a1-4)]GlcNAc(b1-3)Gal(b1-3)[Fuc(a1-4)]GlcNAc
# In short: as §1
# [25] = target: Neu5Ac(a2-3)Gal(b1-3)[Fuc(a1-4)]GlcNAc(b1-3)Gal(b1-4)[Fuc(a1-3)]GlcNAc
# In short: as §1
# [26] = target: Neu5Ac(a2-3)Gal(b1-3)[GlcNAc(b1-6)]GalNAc
# In short: as §1
# [27] = target: Neu5Ac(a2-3)Gal(b1-3)[Neu5Ac(a2-6)]GalNAc
# In short: as §1
# [28] = target: Neu5Ac(a2-3)Gal(b1-3)[Neu5Ac(a2-6)]GlcNAc(b1-3)[Fuc(a1-3)[Gal(b1-4)]GlcNAc(b1-6)]Gal(b1-4)Glc
# In short: as §1
# [29] = target: Neu5Ac(a2-3)Gal(b1-3)]Neu5Ac(a2-3)Gal(b1-4)]GlcNAc
# In short: as §1
# [30] = target: Neu5Ac(a2-3)Gal(b1-4)Glc
# In short: as §1
# [31] = target: Neu5Ac(a2-3)Gal(b1-4)GlcNAc
# In short: as §1
# [32] = target: Neu5Ac(a2-3)Gal(b1-4)GlcNAc(b1-2)Man
# In short: as §1
# [33] = target: Neu5Ac(a2-3)Gal(b1-4)GlcNAc(b1-2)Man(a1-3)[GlcNAc(b1-4)][Neu5Ac(a2-3)Gal(b1-4)GlcNAc(b1-2)Man(a1-6)]Man(b1-4)GlcNAc(b1-4)GlcNAc
# In short: as §1
# [34] = target: Neu5Ac(a2-3)Gal(b1-4)GlcNAc(b1-2)Man(a1-3)[Neu5Ac(a2-3)Gal(b1-4)GlcNAc(b1-2)Man(a1-6)]Man(b1-4)GlcNAc(b1-4)GlcNAc
# In short: as §1
# [35] = target: Neu5Ac(a2-3)Gal(b1-4)GlcNAc(b1-2)Man(a1-3)[Neu5Ac(a2-3)Gal(b1-4)GlcNAc(b1-2)Man(a1-6)]Man(b1-4)GlcNAc(b1-4)[Fuc(a1-6)]GlcNAc
# In short: as §1
# [36] = target: Neu5Ac(a2-3)Gal(b1-4)GlcNAc(b1-2)Man(a1-3)[Neu5Ac(a2-6)Gal(b1-4)GlcNAc(b1-2)Man(a1-6)]Man(b1-4)GlcNAc(b1-4)GlcNAc
# In short: as §1
# [37] = target: Neu5Ac(a2-3)Gal(b1-4)GlcNAc(b1-2)[Neu5Ac(a2-3)Gal(b1-4)GlcNAc(b1-4)]Man(a1-3)[GlcNAc(b1-4)][Neu5Ac(a2-3)Gal(b1-4)GlcNAc(b1-2)[Neu5Ac(a2-3)Gal(b1-4)GlcNAc(b1-6)]Man(a1-6)]Man(b1-4)GlcNAc(b1-4)GlcNAc
# In short: as §1
# [38] = target: Neu5Ac(a2-3)Gal(b1-4)GlcNAc(b1-2)[Neu5Ac(a2-3)Gal(b1-4)GlcNAc(b1-4)]Man(a1-3)[GlcNAc(b1-4)][Neu5Ac(a2-3)Gal(b1-4)GlcNAc(b1-4)Man(a1-6)]Man(b1-4)GlcNAc(b1-4)GlcNAc
# In short: as §1
binder,measurement,setting,value
B1,glycan array binding signal (z-score),[1],-0.545
same,glycan array binding signal (z-score),[2],-0.234
same,glycan array binding signal (z-score),[3],-0.1
same,glycan array binding signal (z-score),[4],-0.467
same,glycan array binding signal (z-score),[5],-0.504
same,glycan array binding signal (z-score),[6],0.406
same,glycan array binding signal (z-score),[7],-0.529
same,glycan array binding signal (z-score),[8],-0.482
same,glycan array binding signal (z-score),[9],-0.601
same,glycan array binding signal (z-score),[10],-0.141
same,glycan array binding signal (z-score),[11],-0.373
same,glycan array binding signal (z-score),[12],-0.443
same,glycan array binding signal (z-score),[13],-0.269
same,glycan array binding signal (z-score),[14],0.385
same,glycan array binding signal (z-score),[15],-0.065
same,glycan array binding signal (z-score),[16],0.226
same,glycan array binding signal (z-score),[17],-0.603
same,glycan array binding signal (z-score),[18],-0.518
same,glycan array binding signal (z-score),[19],-0.614
same,glycan array binding signal (z-score),[20],-0.4
same,glycan array binding signal (z-score),[21],-0.278
same,glycan array binding signal (z-score),[22],0.504
same,glycan array binding signal (z-score),[23],-0.315
same,glycan array binding signal (z-score),[24],-0.435
same,glycan array binding signal (z-score),[25],0.512
same,glycan array binding signal (z-score),[26],-0.349
same,glycan array binding signal (z-score),[27],-0.285
same,glycan array binding signal (z-score),[28],-0.457
same,glycan array binding signal (z-score),[29],-0.652
same,glycan array binding signal (z-score),[30],-0.168
same,glycan array binding signal (z-score),[31],-0.292
same,glycan array binding signal (z-score),[32],0.675
same,glycan array binding signal (z-score),[33],-0.279
same,glycan array binding signal (z-score),[34],-0.242
same,glycan array binding signal (z-score),[35],-0.513
same,glycan array binding signal (z-score),[36],-0.434
same,glycan array binding signal (z-score),[37],-0.268
same,glycan array binding signal (z-score),[38],-0.568
